Measurements: PubChem BioAssay (NCATS)
Where “and” joins values, the source holds several entries; their conditions need not be identical. Equal entries are not always repeated. This list was built around the results that the source calls inconclusive (neither active nor inactive); the mix of calls is not that of the screen. Potencies beside an inconclusive call are fits to weak or partial responses and may not hold up. Calls of active or inactive are those of the source. Calls come from the whole dose curve; as a rule, active = well fitted inhibition curve with a large enough effect; inconclusive = small, poorly fitted or top-dose-only effect; inactive = flat fitted curve, though single readings scatter.

Tests used:
[1] = qHTS for Inhibitors of Plasmodium falciparum (DD2) proliferation (AID 504314);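 for activity, negative = inhibition: parasite DNA measured by SYBR Green fluorescence after red cell lysis; plate controls were DMSO vehicle for no effect and artemisinin wells for full effect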; conditions: P. falciparum Dd2 in erythrocytes, SYBR Green growth, 72 h; activity, negative = inhibition: at 6.11 µM (top of the series)
Outline: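 P. falciparum Dd2 is grown in erythrocytes with test compound for 72 h at 37C under 5% CO2. Growth is scored by SYBR Green I fluorescence after detergent lysis, relative to artemisinin (0.29 uM) and DMSO controls.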

[2] = qHTS for Inhibitors of Plasmodium falciparum (7G8) proliferation (AID 504316); note: nearly all actives have a fitted effect of over 65% in size;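 for activity change, negative = inhibition: 0% = DMSO vehicle and -100% = 0.29 µM artemisinin full kill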; conditions: P. falciparum 7G8 in erythrocytes, SYBR Green DNA, 72 h; activity change, negative = inhibition: at 6.7 µM (top of the series)
Outline: (§1)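 Parasite growth measured as SYBR Green DNA fluorescence (ex 485, em 535 nm) after overnight lysis following 72 h culture at 37 °C, 0.3% parasitemia, 2.5% hematocrit. Values normalized against DMSO and 0.29 uM artemisinin controls, with plate-stack correction.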

[3] = qHTS for Inhibitors of Plasmodium falciparum (HB3) proliferation (AID 504318); note: nearly all actives have a fitted effect of over 60% in size;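 for activity change, negative = inhibition: 0% = DMSO vehicle and -100% = artemisinin control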; conditions: P. falciparum HB3 in erythrocytes, SYBR Green DNA, 72 h; activity change, negative = inhibition: at 7.21 µM (top of the series)
Outline: as §1
Potency is the fitted concentration of half-maximal effect; tags give direction and shape of the fitted curve.

Row | Structure (SMILES) | Potency [1] | Potency [2] | Potency [3] | activity, negative = inhibition [1]
1 | COC(=O)C1=C[C@@]2(c3ccc(F)cc3[C@@H](OC)[C@@H]2C)[C@@H]2C=C[C@H]1C2 | inactive | inactive | inconclusive: 2.62 µM [inhibitor, single point] | 
2 | C#CCCCON=C1C[C@@H](O)[C@H](O)[C@H]2[C@@H]3C(=O)N(Cc4ccccc4)C(=O)[C@@H]3CC[C@H]12 | inactive | inconclusive: 1.9 µM [inhibitor, single point] | inconclusive: 2.62 µM [inhibitor, single point] | 
3 | O=C(NCCOc1ccccc1)O[C@@H]1C(=O)c2cc(Br)ccc2O[C@H]1c1ccc2c(c1)OCO2 | inactive | inconclusive: 1.69 µM [inhibitor, single point] | inconclusive: 1.9 µM [inhibitor, single point] | 
4 | CCCCC1=CC2=C(c3ccco3)C(=O)C(C)(OC(=O)c3ccc(OC)cc3)C(=O)C2=CN1CC1CC1 (stereo not drawn) | inactive | inactive | inactive | 
5 | CCN1C(=NCCc2cccnc2)NC(CCc2ccccc2)C(C(=O)OC)=C1C (stereo not drawn) | inactive | inactive | inconclusive: 0.0169 µM [inhibitor, full curve, poor fit] | 
6 | CCCCCCCC1=CC2=CC(=O)C(C)(OC(C)=O)C(=O)C2=CN1CCc1ccccc1 (stereo not drawn) | inactive | inactive | inactive | 
7 | CC(C)=CCCC(C)=CCN1C(=O)[C@@]2(CC(C)=C[C@@H](COCc3ccccc3)O2)c2ccccc21 | inconclusive: 4240 nM [inhibitor, single point] | inconclusive: 0.426 µM [inhibitor, single point] | inconclusive: 1.51 µM [inhibitor, partial curve] | 
8 | Cc1cc2c(c(=O)n1Cc1ccccc1)[C@H]1O[C@](CCCCN3C(=O)c4ccccc4C3=O)(Cc3cc(C#N)ccc31)O2 | inconclusive: 1190 nM [inhibitor, partial curve, poor fit] | inconclusive: 2.39 µM [inhibitor, single point] | inconclusive: 1.69 µM [inhibitor, single point] | 
9 | CC1=C2[C@H](O)[C@H]([C@@H](C)C(=O)NCCC(C)C)CC[C@@]2(C)C=CC1=O | inconclusive: 4240 nM [inhibitor, single point] | inactive | inconclusive: 2.69 µM [inhibitor, single point] | 
10 | Cc1cc2c(c(=O)o1)[C@H]1O[C@](c3ccsc3)(Cc3c1ccc1ccccc31)O2 | inactive | inconclusive: 4.26 µM [inhibitor, single point] | inconclusive: 0.239 µM [inhibitor, full curve] | 
11 | CCOC(=O)CN1C(=O)N[C@@H](c2cccc(C(F)(F)F)c2)[C@H](C(=O)OC)[C@H]1C |  | inactive | inactive | inactive: -5.39% [at 1.12 µM]
12 | CC(C)=CCCC(C)=CCON=C1C[C@@H](O)[C@@H](O)[C@@H]2[C@H]3C(=O)N(Cc4ccccc4)C(=O)[C@@H]3CC[C@@H]12 | inconclusive: 3780 nM [inhibitor, single point] | inconclusive: 1.69 µM [inhibitor, single point] | inconclusive: 1.69 µM [inhibitor, partial curve] | 
13 | CC(C)=CCN1C(=O)[C@@]2(CC(C)=C[C@@H](COCc3ccccc3)O2)c2ccccc21 | inconclusive: 1690 nM [inhibitor, partial curve, poor fit] | active: 1.9 µM | inconclusive: 1.35 µM [inhibitor, partial curve] | 
14 | CC1(C)OCC([C@H](O)C2=CCCCC2=O)CO1 | inactive | inconclusive: 1.69 µM [inhibitor, single point] | inconclusive: 1.69 µM [inhibitor, single point] | 
15 | COc1cc(C(NC(=O)C(F)(F)F)c2cc3ccccc3o2)cc(OC)c1OC (stereo not drawn) | inactive and inconclusive: 267 nM [activator, partial curve] | inactive | inactive | 
16 | CC(=O)O[C@@H]1C(CO[Si](C)(C)C(C)(C)C)=C(Br)C(=O)[C@@H]2O[C@]12C | inconclusive: 1500 nM [inhibitor, partial curve, poor fit] | inconclusive: 2.69 µM [inhibitor, single point] | inactive | 

Row | Structure (SMILES) | Potency [1] | Potency [2] | Potency [3] | activity, negative = inhibition [1]
17 | COc1ccc([C@]23Cc4c(ccc5ccccc45)[C@H](O2)C2=C(CCCC2=O)O3)cc1 | inconclusive: 4240 nM [inhibitor, single point] | inconclusive: 1.69 µM [inhibitor, partial curve, poor fit] | inconclusive: 0.379 µM [inhibitor, full curve] | 
18 | COC(=O)C1=C(C(=O)OC)[C@@H]2Nc3ccccc3[C@@]23C[C@@H](C(=O)OC)N(C(=O)C2CCC2)C3=N1 | inconclusive: 585 nM [activator, partial curve, poor fit] | inconclusive: 2.39 µM [inhibitor, partial curve, poor fit] | inconclusive: 1.51 µM [inhibitor, partial curve] | 
19 | CC1=CC[C@@H](COc2ccccc2)O[C@@]2(C1)C(=O)N(Cc1ccc(F)cc1)c1ccccc12 | inconclusive: 4240 nM [inhibitor, single point] | inconclusive: 3.38 µM [inhibitor, single point] | inconclusive: 1.9 µM [inhibitor, partial curve] | 
20 | COc1cc([C@@H](NC(=O)C(F)(F)F)C2CCCCC=C2c2ccccc2)cc(OC)c1OC (stereo partly drawn) | inconclusive: 1890 nM [inhibitor, single point] | inconclusive: 3.38 µM [inhibitor, single point] | inconclusive: 1.9 µM [inhibitor, partial curve] | 
21 | Cc1cc2c(c(=O)n1Cc1ccccc1)[C@H]1O[C@](c3ccsc3)(Cc3cc(C#N)ccc31)O2 | inconclusive: 2380 nM [inhibitor, single point] | inconclusive: 1.9 µM [inhibitor, single point] | inconclusive: 1.9 µM [inhibitor, single point] | 
22 | COC(=O)CC=C1c2ccc3c(c2[C@@H](OC)[C@@H]1C)OCO3 | inconclusive: 1690 nM [inhibitor, partial curve, poor fit] | inactive and inconclusive: 2.13 µM [inhibitor, single point] | inconclusive: 1.69 µM [inhibitor, single point] and inconclusive: 1.9 µM [inhibitor, partial curve] | 
23 | CC(C)=CCCC(C)=CC=CC1=CC2(C)CC1(C)C(C=C(C)CCC=C(C)C)CC2=O (stereo not drawn) | inconclusive: 4240 nM [inhibitor, single point] | inconclusive: 1.51 µM [inhibitor, partial curve] | inconclusive: 2.39 µM [inhibitor, partial curve] | 
24 | CC(C)(C)OC(=O)N1CCC[C@@H]1C(O)(c1ccccc1)c1ccccc1 | inconclusive: 4240 nM [inhibitor, single point] | inactive | inconclusive: 1.9 µM [inhibitor, single point] | 
25 | CCN1C(=NCc2cc(OC)c(OC)c(OC)c2)NC(c2ccccc2)C(C(=O)OC)=C1C (stereo not drawn) | inconclusive: 1340 nM [inhibitor, single point] | inconclusive: 3.01 µM [inhibitor, single point] and inactive | inconclusive: 2.39 µM [inhibitor, single point] and inactive | 
26 | COc1cc2c(cc1OC)[C@@]1(c3ccccc3)CCCC[C@H]1[C@@H]2NC(=O)C(F)(F)F | inactive | inconclusive: 0.675 µM [inhibitor, single point] | inconclusive: 1.35 µM [inhibitor, single point] | 
27 | COC(=O)C1=C(C)N(Cc2ccccc2)C(=NCCc2ccccn2)NC1c1cccc(F)c1 (stereo not drawn) | inconclusive: 1690 nM [inhibitor, single point] | inconclusive: 0.757 µM [inhibitor, partial curve, poor fit] | inconclusive: 2.13 µM [inhibitor, single point] | 
28 | CC1(OC(=O)C2CCCC2)C(=O)C=C2C=C(c3ccsc3)N(CCc3ccccn3)C=C2C1=O (stereo not drawn) | inactive | inconclusive: 2.13 µM [inhibitor, partial curve, poor fit] | inconclusive: 1.51 µM [inhibitor, partial curve, poor fit] | 
29 | COC(=O)CCC(=O)OC1(C)C(=O)C=C2C=C(C3CC3)N(c3ccc(CO)cc3)C=C2C1=O (stereo not drawn) | inconclusive: 1890 nM [inhibitor, partial curve] | inconclusive: 3.01 µM [inhibitor, single point] and inconclusive: 1.69 µM [inhibitor, partial curve, poor fit] | inconclusive: 3.01 µM [inhibitor, single point] and inconclusive: 3.79 µM [inhibitor, single point] | 
30 | CCCCCCCc1cc2ccccc2c(=O)o1 | inactive | inactive | inactive | 
31 | COC1=C[C@@H](C(=O)N[C@H]2CCCC[C@H]2NC(C)=O)[C@]2(C)Cc3ccccc3[C@H]2CC1=O | inconclusive: 1340 nM [inhibitor, single point] | inconclusive: 0.426 µM [inhibitor, single point] | inconclusive: 1.9 µM [inhibitor, partial curve] | 
